Measurements from publication PMC9911399, “Two distinct binding modes provide the RNA-binding protein RbFox with extraordinary sequence specificity”.
Residue numbers refer to the chain shown, from its start. The list shows a part of the results.

T1: RBFOX1 RRM (Homo sapiens, UniProt Q9NWB1 109-208)
T1 sequence: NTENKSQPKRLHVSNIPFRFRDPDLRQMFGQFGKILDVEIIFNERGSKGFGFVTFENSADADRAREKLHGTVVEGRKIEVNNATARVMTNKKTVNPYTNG

B1: GUAAUAA (DNA:RNA)
RNA: GGGAGACCGGAAUUCAGAUUGUCCGUAAUAAUUAAAUCCCGUCGUAGCCACCA
DNA 1: CAATCTGAATTCCGGTCTCCC
DNA 2: TGGTGGCTACGACGGGATT
B2: UAUGCUC (DNA:RNA)
RNA: GGGAGACCGGAAUUCAGAUUGUCCUAUGCUCUUAAAUCCCGUCGUAGCCACCA
DNA 1: CAATCTGAATTCCGGTCTCCC
DNA 2: TGGTGGCTACGACGGGATT
B3: AAUUUUC (DNA:RNA)
RNA: B2 RNA with U25A, G28U, C29U
DNA 1: CAATCTGAATTCCGGTCTCCC
DNA 2: TGGTGGCTACGACGGGATT
B4: CUACUAG (DNA:RNA)
RNA: B1 RNA with G25C, A28C, A31G
DNA 1: CAATCTGAATTCCGGTCTCCC
DNA 2: TGGTGGCTACGACGGGATT
B5: UCAAGAA (DNA:RNA)
RNA: B1 RNA with G25U, U26C, U29G
DNA 1: CAATCTGAATTCCGGTCTCCC
DNA 2: TGGTGGCTACGACGGGATT
B6: CCUCGGA (DNA:RNA)
RNA: B1 RNA with G25C, U26C, A27U, A28C, U29G, A30G
DNA 1: CAATCTGAATTCCGGTCTCCC
DNA 2: TGGTGGCTACGACGGGATT
B7: GACCAAU (DNA:RNA)
RNA: B1 RNA with U26A, A27C, A28C, U29A, A31U
DNA 1: CAATCTGAATTCCGGTCTCCC
DNA 2: TGGTGGCTACGACGGGATT
B8: ACUCUGA (DNA:RNA)
RNA: B1 RNA with G25A, U26C, A27U, A28C, A30G
DNA 1: CAATCTGAATTCCGGTCTCCC
DNA 2: TGGTGGCTACGACGGGATT
B9: CCGAAGG (DNA:RNA)
RNA: B1 RNA with G25C, U26C, A27G, U29A, A30G, A31G
DNA 1: CAATCTGAATTCCGGTCTCCC
DNA 2: TGGTGGCTACGACGGGATT
B10: UGGUUGG (DNA:RNA)
RNA: B1 RNA with G25U, U26G, A27G, A28U, A30G, A31G
DNA 1: CAATCTGAATTCCGGTCTCCC
DNA 2: TGGTGGCTACGACGGGATT
B11: GUAACCU (DNA:RNA)
RNA: B1 RNA with U29C, A30C, A31U
DNA 1: CAATCTGAATTCCGGTCTCCC
DNA 2: TGGTGGCTACGACGGGATT
B12: UCUCCUU (DNA:RNA)
RNA: B2 RNA with A26C, G28C, C31U
DNA 1: CAATCTGAATTCCGGTCTCCC
DNA 2: TGGTGGCTACGACGGGATT
B13: CUACGCG (DNA:RNA)
RNA: B1 RNA with G25C, A28C, U29G, A30C, A31G
DNA 1: CAATCTGAATTCCGGTCTCCC
DNA 2: TGGTGGCTACGACGGGATT
B14: CUUCUUU (DNA:RNA)
RNA: B1 RNA with G25C, A27U, A28C, A30U, A31U
DNA 1: CAATCTGAATTCCGGTCTCCC
DNA 2: TGGTGGCTACGACGGGATT
B15: GACCUAG (DNA:RNA)
RNA: B1 RNA with U26A, A27C, A28C, A31G
DNA 1: CAATCTGAATTCCGGTCTCCC
DNA 2: TGGTGGCTACGACGGGATT
B16: UAAGGGA (DNA:RNA)
RNA: B2 RNA with U27A, C29G, U30G, C31A
DNA 1: CAATCTGAATTCCGGTCTCCC
DNA 2: TGGTGGCTACGACGGGATT
B17: UCAGGGC (DNA:RNA)
RNA: B2 RNA with A26C, U27A, C29G, U30G
DNA 1: CAATCTGAATTCCGGTCTCCC
DNA 2: TGGTGGCTACGACGGGATT
B18: CUACGAC (DNA:RNA)
RNA: B1 RNA with G25C, A28C, U29G, A31C
DNA 1: CAATCTGAATTCCGGTCTCCC
DNA 2: TGGTGGCTACGACGGGATT
B19: GGAUCUC (DNA:RNA)
RNA: B2 RNA with U25G, A26G, U27A, G28U
DNA 1: CAATCTGAATTCCGGTCTCCC
DNA 2: TGGTGGCTACGACGGGATT
B20: AGCCCAC (DNA:RNA)
RNA: B2 RNA with U25A, A26G, U27C, G28C, U30A
DNA 1: CAATCTGAATTCCGGTCTCCC
DNA 2: TGGTGGCTACGACGGGATT
B21: AUUAAGA (DNA:RNA)
RNA: B1 RNA with G25A, A27U, U29A, A30G
DNA 1: CAATCTGAATTCCGGTCTCCC
DNA 2: TGGTGGCTACGACGGGATT
B22: AAGGGUG (DNA:RNA)
RNA: B2 RNA with U25A, U27G, C29G, C31G
DNA 1: CAATCTGAATTCCGGTCTCCC
DNA 2: TGGTGGCTACGACGGGATT
B23: UCGAUGA (DNA:RNA)
RNA: B1 RNA with G25U, U26C, A27G, A30G
DNA 1: CAATCTGAATTCCGGTCTCCC
DNA 2: TGGTGGCTACGACGGGATT
B24: CUGGACA (DNA:RNA)
RNA: B1 RNA with G25C, A27G, A28G, U29A, A30C
DNA 1: CAATCTGAATTCCGGTCTCCC
DNA 2: TGGTGGCTACGACGGGATT
B25: UCUUUCG (DNA:RNA)
RNA: B2 RNA with A26C, G28U, C29U, U30C, C31G
DNA 1: CAATCTGAATTCCGGTCTCCC
DNA 2: TGGTGGCTACGACGGGATT
B26: UACGGGA (DNA:RNA)
RNA: B2 RNA with U27C, C29G, U30G, C31A
DNA 1: CAATCTGAATTCCGGTCTCCC
DNA 2: TGGTGGCTACGACGGGATT
B27: CGUGUUA (DNA:RNA)
RNA: B2 RNA with U25C, A26G, C29U, C31A
DNA 1: CAATCTGAATTCCGGTCTCCC
DNA 2: TGGTGGCTACGACGGGATT
B28: AAUAUAU (DNA:RNA)
RNA: B1 RNA with G25A, U26A, A27U, A31U
DNA 1: CAATCTGAATTCCGGTCTCCC
DNA 2: TGGTGGCTACGACGGGATT
B29: AGGCCGG (DNA:RNA)
RNA: B2 RNA with U25A, A26G, U27G, G28C, U30G, C31G
DNA 1: CAATCTGAATTCCGGTCTCCC
DNA 2: TGGTGGCTACGACGGGATT
B30: UGCUAAG (DNA:RNA)
RNA: B1 RNA with G25U, U26G, A27C, A28U, U29A, A31G
DNA 1: CAATCTGAATTCCGGTCTCCC
DNA 2: TGGTGGCTACGACGGGATT
B31: CCUCACC (DNA:RNA)
RNA: B2 RNA with U25C, A26C, G28C, C29A, U30C
DNA 1: CAATCTGAATTCCGGTCTCCC
DNA 2: TGGTGGCTACGACGGGATT

Target: T1, RBFOX1 RRM
Assay: EMSA; HiTS-Eq, 1 nM pool, 10 min; buffer printed only for the single-RNA assays: 10 mM Tris pH 7.5, 150 mM NaCl, 3.4 mM EDTA, 0.001% NP-40, 30 C
Conditions: tags: His6 N-terminal (pET28a); label: 5' 32P
Procedure, shortened: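 Purified RbFox RRM, wild type or mutant, was incubated for 10 min in 50 µL with 1 nM of a 5′-radiolabelled RNA pool carrying 7 randomized nucleotides, whose flanks were annealed to DNA oligonucleotides, over a series of increasing protein concentrations. Unbound RNA was resolved on 8% native PAGE, cut out, reverse-transcribed, barcoded by PCR and sequenced on an Illumina HiSeq 2500. Relative association constants were derived from changes in read counts for each RNA species versus the control reaction and normalised to the cognate motif.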

| Binder | binding signal |
| --- | --- |
| B1 | 0.00176 KA relative to UGCAUGU |
| B2 | 0.0158 KA relative to UGCAUGU |
| B3 | 0.00788 KA relative to UGCAUGU |
| B4 | 0.0104 KA relative to UGCAUGU |
| B5 | 0.00503 KA relative to UGCAUGU |
| B6 | 0.00996 KA relative to UGCAUGU |
| B7 | 0.00483 KA relative to UGCAUGU |
| B8 | 0.0132 KA relative to UGCAUGU |
| B9 | 0.0158 KA relative to UGCAUGU |
| B10 | 0.0294 KA relative to UGCAUGU |
| B11 | 0.00401 KA relative to UGCAUGU |
| B12 | 0.00711 KA relative to UGCAUGU |
| B13 | 0.00824 KA relative to UGCAUGU |
| B14 | 0.0106 KA relative to UGCAUGU |
| B15 | 0.0112 KA relative to UGCAUGU |
| B16 | 0.00419 KA relative to UGCAUGU |

| Binder | binding signal |
| --- | --- |
| B17 | 0.00678 KA relative to UGCAUGU |
| B18 | 0.00574 KA relative to UGCAUGU |
| B19 | 0.0209 KA relative to UGCAUGU |
| B20 | 0.00162 KA relative to UGCAUGU |
| B21 | 0.00517 KA relative to UGCAUGU |
| B22 | 0.0144 KA relative to UGCAUGU |
| B23 | 0.0175 KA relative to UGCAUGU |
| B24 | 0.00752 KA relative to UGCAUGU |
| B25 | 0.0189 KA relative to UGCAUGU |
| B26 | 0.00295 KA relative to UGCAUGU |
| B27 | 0.0105 KA relative to UGCAUGU |
| B28 | 0.00146 KA relative to UGCAUGU |
| B29 | 0.00957 KA relative to UGCAUGU |
| B30 | 0.0227 KA relative to UGCAUGU |
| B31 | 0.0031 KA relative to UGCAUGU |
